Test results: the supplement of paper PMC4967469

Legend:
Assay in all cases: Viability of human cancer cell lines after 72 h of drug (GDSC screen)
BMN-673 = compound: Cn1ncnc1[C@H]1c2n[nH]c(=O)c3cc(F)cc(c23)N[C@@H]1c1ccc(F)cc1 [BMN-673]; conditions: top dose 10 µM; top dose inferred
Experimental: (§1)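 Human cancer cell lines in 384-well plates, medium with 10% serum, drug for 72 h over a 256-fold dose range (nine 2-fold or five 4-fold steps up to the top dose). Adherent lines were fixed and stained with the nucleic acid dye Syto60, suspension lines read with resazurin; signal relative to control wells, capped at 0 and 100%. One two-parameter sigmoid per drug and line, fitted in a mixed model over all curves with the slope shared within a line.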

AZD6482 = compound: Cc1cc([C@@H](C)Nc2ccccc2C(=O)O)c2nc(N3CCOCC3)cc(=O)n2c1 [AZD6482]
Experimental: as §1

MLN4924 = compound: NS(=O)(=O)OC[C@@H]1C[C@@H](n2ccc3c(N[C@H]4CCc5ccccc54)ncnc32)C[C@@H]1O [MLN4924]; conditions: top dose 1 µM; top dose inferred
Experimental: as §1

[1] = top dose 5 µM, screen: GDSC drug entry 1066, top dose inferred
[2] = top dose 5.12 µM, screen: GDSC drug entry 156

| Cell Line | AUC (BMN-673) | IC50 (BMN-673) [µM] | AUC (AZD6482; [1]) | IC50 (AZD6482; [1]) [µM] | AUC (MLN4924) | IC50 (MLN4924) [µM] | AUC (AZD6482; [2]) | IC50 (AZD6482; [2]) [µM] |
| --- | --- | --- | --- | --- | --- | --- | --- | --- |
| NCI-H146 (small cell lung carcinoma, suspension) | 0.989 | > 10 | 0.985 | > 5 | 0.865 | 0.598 |  |  |
| NCI-H187 (small cell lung carcinoma, suspension) | 0.977 | > 10 | 0.979 | > 5 | 0.978 | > 1 | 0.982 | > 5.12 |
| NCI-H209 (small cell lung carcinoma, suspension) | 0.226 | 0.0931 | 0.959 | > 5 | 0.735 | 0.309 | 0.963 | > 5.12 |
| NCI-H211 (small cell lung carcinoma, adherent) | 0.871 | 8.97 | 0.986 | > 5 | 0.968 | > 1 | 0.959 | > 5.12 |
| NCI-H322M (lung adenocarcinoma, suspension) | 0.985 | > 10 | 0.983 | > 5 | 0.98 | > 1 | 0.948 | > 5.12 |
| NCI-H358 (lung adenocarcinoma, adherent) | 0.959 | > 10 | 0.972 | > 5 | 0.949 | > 1 | 0.845 | 4.35 |
| NCI-H520 (lung squamous cell carcinoma, adherent) | 0.976 | > 10 | 0.836 | 3.46 | 0.972 | > 1 | 0.805 | 2.68 |
| NCI-H522 (lung adenocarcinoma, adherent) | 0.95 | > 10 | 0.885 | > 5 | 0.969 | > 1 | 0.863 | > 5.12 |
| NCI-H526 (small cell lung carcinoma, suspension) | 0.91 | > 10 | 0.967 | > 5 | 0.89 | > 1 | 0.939 | > 5.12 |
| NCI-H596 (lung adenocarcinoma, adherent) | 0.941 | > 10 | 0.951 | > 5 | 0.979 | > 1 | 0.969 | > 5.12 |
| NCI-H647 (non-small cell lung carcinoma, adherent) | 0.983 | > 10 | 0.81 | 2.79 | 0.983 | > 1 | 0.87 | > 5.12 |
| NCI-H661 (large cell lung carcinoma, adherent) | 0.854 | > 10 | 0.813 | 3.44 | 0.908 | > 1 | 0.928 | > 5.12 |
| NCI-H727 (lung carcinoid, adherent) | 0.973 | > 10 | 0.967 | > 5 | 0.952 | > 1 | 0.903 | > 5.12 |
| NCI-H835 (lung carcinoid, suspension) | 0.983 | > 10 | 0.973 | > 5 | 0.99 | > 1 |  |  |
| NCI-H838 (lung adenocarcinoma, adherent) | 0.867 | 9.68 | 0.893 | > 5 | 0.484 | 0.0563 | 0.967 | > 5.12 |
| NCI-H1048 (small cell lung carcinoma, adherent) | 0.325 | 0.215 | 0.685 | 0.966 | 0.961 | > 1 | 0.72 | 1.25 |
| NCI-H1092 (small cell lung carcinoma, suspension) | 0.951 | > 10 | 0.984 | > 5 | 0.95 | > 1 | 0.99 | > 5.12 |
| NCI-H1105 (small cell lung carcinoma, suspension) | 0.749 | 2.75 | 0.984 | > 5 | 0.973 | > 1 |  |  |
| NCI-H1299 (large cell lung carcinoma, adherent) | 0.949 | > 10 | 0.95 | > 5 | 0.864 | > 1 | 0.762 | 2.23 |

| Cell Line | AUC (BMN-673) | IC50 (BMN-673) [µM] | AUC (AZD6482; [1]) | IC50 (AZD6482; [1]) [µM] | AUC (MLN4924) | IC50 (MLN4924) [µM] | AUC (AZD6482; [2]) | IC50 (AZD6482; [2]) [µM] |
| --- | --- | --- | --- | --- | --- | --- | --- | --- |
| NCI-H1341 (small cell lung carcinoma, suspension) | 0.78 | 3.5 | 0.87 | 3.52 | 0.876 | 0.744 |  |  |
| NCI-H1435 (lung adenocarcinoma, semi-adherent) | 0.992 | > 10 | 0.931 | > 5 | 0.98 | > 1 | 0.896 | 5.08 |
| NCI-H1573 (lung adenocarcinoma, adherent) | 0.966 | > 10 | 0.978 | > 5 | 0.924 | > 1 | 0.991 | > 5.12 |
| NCI-H1581 (large cell lung carcinoma, semi-adherent) | 0.919 | > 10 | 0.959 | > 5 | 0.974 | > 1 | 0.99 | > 5.12 |
| NCI-H1666 (lung adenocarcinoma, semi-adherent) | 0.903 | > 10 | 0.944 | > 5 | 0.98 | > 1 | 0.98 | > 5.12 |
| NCI-H1693 (lung adenocarcinoma, adherent) | 0.87 | > 10 | 0.859 | > 5 | 0.932 | > 1 | 0.881 | > 5.12 |
| NCI-H1703 (lung adenocarcinoma, adherent) | 0.942 | > 10 | 0.961 | > 5 | 0.589 | 0.116 | 0.961 | > 5.12 |
| NCI-H1793 (lung adenocarcinoma, adherent) | 0.929 | > 10 | 0.787 | 3.21 | 0.972 | > 1 | 0.963 | > 5.12 |
| NCI-H1836 (small cell lung carcinoma, suspension) | 0.986 | > 10 | 0.984 | > 5 | 0.985 | > 1 | 0.979 | > 5.12 |
| NCI-H1838 (lung adenocarcinoma, adherent) | 0.967 | > 10 |  |  | 0.938 | > 1 | 0.983 | > 5.12 |
| NCI-H1869 (lung squamous cell carcinoma, adherent) | 0.961 | > 10 | 0.95 | > 5 | 0.967 | > 1 | 0.898 | > 5.12 |
| NCI-H2009 (lung adenocarcinoma, adherent) | 0.869 | > 10 | 0.952 | > 5 | 0.871 | > 1 | 0.805 | 2.75 |
| NCI-H2023 (lung adenocarcinoma, adherent) | 0.484 | 0.561 | 0.933 | > 5 | 0.773 | 0.487 | 0.921 | > 5.12 |
| NCI-H2029 (small cell lung carcinoma, adherent) | 0.992 | > 10 | 0.986 | > 5 | 0.953 | > 1 | 0.992 | > 5.12 |
| NCI-H2030 (lung adenocarcinoma, adherent) | 0.759 | 3.96 | 0.73 | 1.56 | 0.676 | 0.209 | 0.776 | 2.33 |
| NCI-H2081 (small cell lung carcinoma, suspension) | 0.988 | > 10 | 0.976 | > 5 | 0.94 | > 1 | 0.973 | > 5.12 |
| NCI-H2085 (lung adenocarcinoma, adherent) | 0.945 | > 10 | 0.864 | > 5 | 0.938 | > 1 | 0.617 | 0.69 |
| NCI-H2135 (non-small cell lung carcinoma, adherent) | 0.99 | > 10 | 0.99 | > 5 | 0.977 | > 1 | 0.971 | > 5.12 |
| NCI-H2170 (lung squamous cell carcinoma, adherent) | 0.767 | 3.88 | 0.967 | > 5 | 0.875 | > 1 | 0.945 | > 5.12 |

| Cell Line | AUC (BMN-673) | IC50 (BMN-673) [µM] | AUC (AZD6482; [1]) | IC50 (AZD6482; [1]) [µM] | AUC (MLN4924) | IC50 (MLN4924) [µM] | AUC (AZD6482; [2]) | IC50 (AZD6482; [2]) [µM] |
| --- | --- | --- | --- | --- | --- | --- | --- | --- |
| NCI-H2172 (non-small cell lung carcinoma, adherent) | 0.952 | > 10 | 0.947 | > 5 | 0.967 | > 1 | 0.945 | > 5.12 |
| NCI-H2227 (small cell lung carcinoma, semi-adherent) | 0.908 | > 10 | 0.986 | > 5 | 0.854 | 0.959 | 0.981 | > 5.12 |
| NCI-H2342 (lung adenocarcinoma, adherent) | 0.834 | 7.51 |  |  | 0.975 | > 1 | 0.643 | 0.834 |
| NCI-H2405 (lung adenocarcinoma, adherent) | 0.773 | 4.3 | 0.9 | > 5 | 0.951 | > 1 | 0.955 | > 5.12 |
| NCI-H2444 (non-small cell lung carcinoma, adherent) | 0.98 | > 10 | 0.975 | > 5 | 0.984 | > 1 | 0.946 | > 5.12 |
| NCI-H2452 (mesothelioma, adherent) | 0.8 | 5.93 | 0.755 | 2 | 0.907 | > 1 | 0.909 | > 5.12 |
| NCI-H3122 (lung adenocarcinoma, adherent) | 0.686 | 2.11 | 0.943 | > 5 | 0.769 | 0.389 | 0.854 | 4.24 |
| NCI-SNU-1 (stomach, suspension) | 0.972 | > 10 | 0.981 | > 5 | 0.943 | > 1 | 0.952 | > 5.12 |
| NKM-1 (acute myeloid leukaemia, suspension) | 0.51 | 0.666 | 0.87 | 4.91 | 0.708 | 0.246 | 0.698 | 1.17 |
| NU-DUL-1 (B-cell lymphoma, suspension) | 0.927 | > 10 |  |  | 0.895 | 0.794 | 0.627 | 0.665 |
| NUGC-3 (stomach, adherent) | 0.445 | 0.435 | 0.934 | > 5 | 0.738 | 0.329 | 0.957 | > 5.12 |
| OACM5-1 (oesophagus, semi-adherent) | 0.985 | > 10 | 0.984 | > 5 | 0.985 | > 1 |  |  |
| OAW-28 (ovary, adherent) | 0.77 | 4.83 | 0.824 | 4.07 | 0.978 | > 1 | 0.796 | 3.14 |
| OAW-42 (ovary, adherent) | 0.708 | 2.56 | 0.899 | > 5 | 0.793 | 0.501 | 0.963 | > 5.12 |
| OCI-AML2 (acute myeloid leukaemia, suspension) | 0.459 | 0.497 | 0.994 | > 5 | 0.656 | 0.15 | 0.991 | > 5.12 |
| OCI-M1 (acute myeloid leukaemia, suspension) | 0.676 | 1.69 | 0.992 | > 5 | 0.785 | 0.326 | 0.995 | > 5.12 |
| OCUM-1 (stomach, adherent) | 0.747 | 3.52 | 0.966 | > 5 | 0.916 | > 1 | 0.976 | > 5.12 |
| OE19 (oesophagus, adherent) | 0.948 | > 10 | 0.824 | 3.49 | 0.949 | > 1 | 0.914 | > 5.12 |
| OE33 (oesophagus, adherent) | 0.881 | > 10 | 0.894 | > 5 | 0.945 | > 1 | 0.83 | 4.11 |

By IC50 is meant the dose at which the fit gives 50% viability; a fit beyond the top or the lowest dose is shown as a bound at that dose. AUC, from the same fit, is the share of area under the viability curve across the 256-fold dose range: 1 means no effect, lower means more sensitive. A top dose marked as inferred was calculated from the reported fits. For some assays here: An entry number marks a drug with two screens in the source, which often give different values.
